Experimental data: the supplement of paper PMC4967469
By IC50 is meant the dose at which the fit gives 50% viability; a fit beyond the top or the lowest dose is shown as a bound at that dose. The AUC spans the tested range (256-fold, ending at the top dose) of the same fit: 1 means no effect, lower means more sensitive.

Compound: Cn1c(=O)n(-c2ccc(C(C)(C)C#N)cc2)c2c3cc(-c4cnc5ccccc5c4)ccc3ncc21 [NVP-BEZ235]
Test: Viability of human cancer cell lines after 72 h of drug (GDSC screen)
Protocol: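 Human cancer cell lines in 384-well plates, medium with 10% serum, drug for 72 h over a 256-fold dose range (nine 2-fold or five 4-fold steps up to the top dose). Adherent lines were fixed and stained with the nucleic acid dye Syto60, suspension lines read with resazurin; signal relative to control wells, capped at 0 and 100%. One two-parameter sigmoid per drug and line, fitted in a mixed model over all curves with the slope shared within a line.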

| Cell Line | AUC | IC50 [nM] |
| --- | --- | --- |
| HL-60 (acute myeloid leukaemia, suspension, top dose 0.25 µM) | 0.783 | 94.3 |
| HLE (liver, adherent, top dose 0.25 µM) | 0.648 | 39.1 |
| HN (head and neck, adherent, top dose 0.25 µM) | 0.37 | 7.01 |
| HO-1-u-1 (head and neck, adherent, top dose 0.25 µM) | 0.802 | 117 |
| HOP-62 (lung adenocarcinoma, adherent, top dose 0.25 µM) | 0.718 | 64.5 |
| HOS (osteosarcoma, adherent, top dose 0.25 µM) | 0.558 | 21.9 |
| HSC-2 (head and neck, adherent, top dose 0.25 µM) | 0.761 | 82.6 |
| HSC-39 (stomach, suspension, top dose 0.25 µM) | 0.691 | 49.2 |
| HT55 (large intestine, adherent, top dose 0.25 µM) | 0.958 | > 250 |
| HT (B-cell lymphoma, suspension, top dose 0.25 µM) | 0.659 | 41.5 |
| HT-3 (cervix, adherent, top dose 0.25 µM) | 0.894 | > 250 |
| HT-29 (large intestine, adherent, top dose 0.25 µM) | 0.911 | > 250 |
| HT-115 (large intestine, adherent, top dose 0.25 µM) | 0.888 | 238 |
| HT-144 (melanoma, adherent, top dose 0.25 µM) | 0.797 | 134 |
| HT-1080 (fibrosarcoma, adherent, top dose 0.25 µM) | 0.575 | 24.5 |
| HT-1197 (bladder, adherent, top dose 0.25 µM) | 0.838 | 215 |
| HT-1376 (bladder, adherent, top dose 0.25 µM) | 0.914 | > 250 |
| HUTU-80 (digestive system, adherent, top dose 0.25 µM) | 0.215 | 2.78 |
| HeLa (cervix, adherent, top dose 0.25 µM) | 0.874 | 224 |
| Hep 3B2_1-7 (liver, adherent, top dose 0.25 µM) | 0.706 | 59.5 |
| Hey (ovary, adherent, top dose 0.25 µM) | 0.426 | 9.93 |
| Hs633T (fibrosarcoma, adherent, top dose 0.25 µM) | 0.385 | 8.03 |
| Hs683 (glioma, adherent, top dose 0.25 µM) | 0.61 | 31.5 |
| Hs746T (stomach, adherent, top dose 0.25 µM) | 0.823 | 221 |
| Hs766T (pancreas, adherent, top dose 0.25 µM) | 0.651 | 47.2 |
| Hs939-T (melanoma, adherent, top dose 0.25 µM) | 0.731 | 76.4 |
| HuCCT1 (biliary tract, adherent, top dose 0.25 µM) | 0.721 | 71.9 |

| Cell Line | AUC | IC50 [nM] |
| --- | --- | --- |
| HuH-7 (liver, adherent, top dose 0.25 µM) | 0.538 | 19.8 |
| HuO9 (osteosarcoma, adherent, top dose 0.25 µM) | 0.592 | 28.7 |
| HuO-3N1 (osteosarcoma, adherent, top dose 0.25 µM) | 0.798 | 165 |
| HuP-T3 (pancreas, adherent, top dose 0.25 µM) | 0.83 | 208 |
| HuP-T4 (pancreas, adherent, top dose 0.25 µM) | 0.765 | 97.2 |
| IA-LM (large cell lung carcinoma, adherent, top dose 0.25 µM) | 0.756 | 95.2 |
| IGR-1 (melanoma, adherent, top dose 0.25 µM) | 0.679 | – |
| IGR-37 (melanoma, adherent, top dose 0.25 µM) | 0.583 | 25.9 |
| IGROV-1 (ovary, adherent, top dose 0.25 µM) | 0.776 | 152 |
| IHH-4 (thyroid, semi-adherent, top dose 0.25 µM) | 0.589 | 26 |
| IM-9 (myeloma, suspension, top dose 0.25 µM) | 0.989 | > 250 |
| IMR-5 (neuroblastoma, adherent, top dose 0.25 µM) | 0.948 | > 250 |
| IPC-298 (melanoma, adherent, top dose 0.25 µM) | 0.777 | 98.7 |
| IST-MEL1 (melanoma, adherent, top dose 0.25 µM) | 0.55 | 21.9 |
| IST-SL1 (small cell lung carcinoma, semi-adherent, top dose 0.25 µM) | 0.942 | > 250 |
| IST-SL2 (small cell lung carcinoma, suspension, top dose 0.25 µM) | 0.652 | 41 |
| JAR (urogenital system, adherent, top dose 0.25 µM) | 0.924 | > 250 |
| JEG-3 (urogenital system, adherent, top dose 0.25 µM) | 0.738 | 68.9 |
| JEKO-1 (B-cell lymphoma, suspension, top dose 0.25 µM) | 0.548 | 21 |
| JHH-1 (liver, adherent, top dose 0.25 µM) | 0.704 | 62.2 |
| JHH-2 (liver, adherent, top dose 0.25 µM) | 0.604 | 30.9 |
| JHH-4 (liver, adherent, top dose 0.25 µM) | 0.765 | 91.2 |
| JHH-7 (liver, adherent, top dose 0.25 µM) | 0.861 | 190 |
| JHOS-2 (ovary, adherent, top dose 0.25 µM) | 0.639 | 40.5 |
| JHOS-3 (ovary, adherent, top dose 0.25 µM) | 0.9 | > 250 |
| JHOS-4 (ovary, adherent, top dose 0.25 µM) | 0.948 | > 250 |
| JHU-011 (head and neck, adherent, top dose 0.25 µM) | 0.511 | 16.7 |

| Cell Line | AUC | IC50 [nM] |
| --- | --- | --- |
| JHU-022 (head and neck, adherent, top dose 0.25 µM) | 0.606 | 33 |
| JHU-029 (head and neck, adherent, top dose 0.25 µM) | 0.699 | 65.1 |
| JIMT-1 (breast, adherent, top dose 0.25 µM) | 0.516 | 17.4 |
| JJN-3 (haematopoietic neoplasm, suspension, top dose 0.25 µM) | 0.651 | 37.7 |
| JM1 (B-cell lymphoma, suspension, top dose 0.25 µM) | 0.807 | 107 |
| JSC-1 (B-cell lymphoma, suspension, top dose 0.25 µM) | 0.732 | 71.1 |
| JURL-MK1 (chronic myeloid leukaemia, suspension, top dose 0.25 µM) | 0.689 | 52.6 |
| JVM-2 (lymphoid neoplasm, suspension, top dose 0.25 µM) | 0.663 | 49.4 |
| JVM-3 (lymphoid neoplasm, suspension, top dose 0.25 µM) | 0.675 | 48.6 |
| JiyoyeP-2003 (Burkitt lymphoma, suspension, top dose 0.25 µM) | 0.731 | 64.4 |
| Jurkat (T-cell leukaemia, suspension, top dose 0.25 µM) | 0.868 | 163 |
| K2 (melanoma, adherent, top dose 0.25 µM) | 0.847 | > 250 |
| KARPAS-45 (lymphoblastic leukaemia, suspension, top dose 0.25 µM) | 0.682 | 45.5 |
| KARPAS-231 (B-cell leukaemia, suspension, top dose 0.25 µM) | 0.592 | 26.2 |
| KARPAS-299 (anaplastic large cell lymphoma, suspension, top dose 0.25 µM) | 0.603 | 28.5 |
| KARPAS-422 (B-cell lymphoma, suspension, top dose 0.25 µM) | 0.75 | 80.9 |
| KARPAS-620 (haematopoietic neoplasm, suspension, top dose 0.25 µM) | 0.654 | 38.9 |
| KARPAS-1106P (B-cell lymphoma, suspension, top dose 0.25 µM) | 0.545 | 20.3 |
| KATOIII (stomach, semi-adherent, top dose 0.25 µM) | 0.788 | 99.5 |
| KCL-22 (chronic myeloid leukaemia, suspension, top dose 0.25 µM) | 0.647 | 37 |
| KE-37 (lymphoblastic leukaemia, suspension, top dose 0.25 µM) | 0.596 | 26.9 |
| KELLY (neuroblastoma, adherent, top dose 0.25 µM) | 0.596 | 27.8 |
| KG-1 (acute myeloid leukaemia, suspension, top dose 0.25 µM) | 0.874 | 199 |
| KGN (ovary, adherent, top dose 0.25 µM) | 0.698 | 64.2 |
| KINGS-1 (glioma, adherent, top dose 0.25 µM) | 0.711 | 78.3 |
| KLE (endometrium, adherent, top dose 0.25 µM) | 0.824 | > 250 |
